Laboratory results taken from PubChem BioAssay AID1030 (National Center for Advancing Translational Sciences (NCATS), 2008).
Screen size: about 220,000 compounds; about 16,000 (7.3%) were called active. The inconclusive results got no clear call from the source; some entries with a clear call stand among them for comparison. Calls follow the shape of the dose curve; as a rule, active = well fitted inhibition curve with a large enough effect (not every such curve was filed as active); inconclusive = small, poorly fitted or top-dose-only effect, or another doubt; inactive = no such curve, though single readings can be large or run the other way. Potencies of inconclusive entries are left out as doubtful fits.

Molecular target: Aldehyde dehydrogenase 1A1 (Homo sapiens) (UniProt P00352)
Assay: qHTS Assay for Inhibitors of Aldehyde Dehydrogenase 1 (ALDH1A1);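 as to activity, negative = inhibition: plate controls were no enzyme wells and a reference inhibitor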
Conditions: Purified ALDH1A1, NADH fluorescence, propionaldehyde substrate; series mostly up to 75.3 µM; activity, negative = inhibition: at the top concentration
Potency is read from the fitted curve at half-maximal effect; tags tell the direction and shape of the fitted curve.

Chain of UniProt P00352 (P00352 whole entry, looked up): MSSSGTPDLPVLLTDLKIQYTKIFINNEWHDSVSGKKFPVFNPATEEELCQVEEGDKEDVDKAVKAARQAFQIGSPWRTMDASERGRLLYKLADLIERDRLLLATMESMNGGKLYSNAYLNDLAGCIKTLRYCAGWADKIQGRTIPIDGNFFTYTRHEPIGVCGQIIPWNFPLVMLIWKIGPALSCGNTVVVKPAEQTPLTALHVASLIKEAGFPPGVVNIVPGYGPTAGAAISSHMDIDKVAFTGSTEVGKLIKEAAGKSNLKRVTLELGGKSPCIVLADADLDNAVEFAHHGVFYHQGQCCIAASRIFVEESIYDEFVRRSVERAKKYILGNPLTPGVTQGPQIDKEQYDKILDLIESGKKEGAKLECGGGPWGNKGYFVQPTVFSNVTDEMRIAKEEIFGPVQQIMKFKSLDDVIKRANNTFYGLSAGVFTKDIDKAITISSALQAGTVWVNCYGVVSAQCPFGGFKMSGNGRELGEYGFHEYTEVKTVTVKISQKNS

Row | SMILES | Potency | activity, negative = inhibition
1 | Cc1ccc(N2C(=O)C3C4C=CC(CNC(=S)N5CCN(c6ccccn6)CC5)(O4)C3C2=O)cc1 (configuration not stated) | inconclusive [inhibitor, partial curve] | –
2 | CC(C)NC(=O)N1CCCC2(CCN(C(=O)c3ccco3)CC2)C1 | – | inactive: -2.64%
3 | OC[C@@H]1[C@@H](c2ccc(Cl)cc2)C(c2cccc(Cl)c2)=NN1c1ccccc1 | inconclusive [inhibitor, partial curve] | –
4 | O=C(OC1CCc2ccccc2C1=O)c1ccccc1O (configuration not stated) | inconclusive [inhibitor, single point] | –
5 | O=C1CSC(c2ccccc2[N+](=O)[O-])N1c1ccc(O)cc1 (configuration not stated) | inconclusive [inhibitor, single point] | –
6 | COc1cccc(NC(=O)CNC(=O)c2ccc(F)cc2)c1 | – | inactive: 9.06%
7 | CCOC(=O)c1sc(C)c2c1NC(C)(c1cccs1)NC2=O (configuration not stated) | inconclusive [inhibitor, single point] | –
8 | COc1ccc(C2Nc3ccccc3C(=O)N2NC(=O)c2ccccc2)cc1OC (configuration not stated) | inconclusive [inhibitor, single point] | –
9 | O=c1c(CCc2ccccc2)nc2cnc(N3CCOCC3)nc2n1C1CC1 | inconclusive [inhibitor, single point] | –
10 | Cc1cc(C(C)(C)C)ccc1OCCOCCN1CCCC1 | inconclusive [inhibitor, single point] | –
11 | O=C(N/N=C\c1ccc(COc2ccc([N+](=O)[O-])cc2)o1)c1ccc(Cl)cc1 | – | inactive: -3.95%
12 | COc1cc(NC(=O)c2ccccc2)c(OC)cc1NC(C)=O | – | inactive: -8.26%
13 | O=C(COC(=O)c1ccccc1NC(=O)c1ccco1)Nc1ncc(Cl)cc1Cl | inconclusive [inhibitor, single point] | –
14 | CC1(C)CC(=O)C2=C(C1)NC(SCC(N)=O)=C(C#N)C21CCCCC1 | inconclusive [inhibitor, partial curve] | –
15 | CCOC(=O)Cc1csc(NC(=O)CCSc2ccccc2)n1 | inconclusive [inhibitor, single point] | –
16 | CCOC(=O)c1cnc2c(N=Nc3cccc(Cl)c3)c(N)nn2c1N | – | inactive: 2.94%
17 | Fc1cccc2ncnc(OCc3ccccc3)c12 | – | inactive: -1.42%
18 | O=C(NCc1cccnc1)c1ccc(COc2ccc3c(c2)CCC3)o1 | inconclusive [inhibitor, partial curve] | –
19 | CC(C(=O)NCC1CCCCC1)N1CCN(S(=O)(=O)/C=C/c2ccccc2)CC1 (configuration not stated) | inconclusive [inhibitor, single point] | –
20 | CC(O)CNc1nc(Cl)c(C#N)s1 (configuration not stated) | – | inactive: -0.288%
21 | O=C(NNc1ccccc1)C(CCO)C(=O)NNc1ccccc1 | inconclusive [inhibitor, partial curve, poor fit] | –
22 | CCOC(=O)c1cc2c(ccn2C)n1CC(=O)N1CCC(Cc2ccccc2)CC1 | inconclusive [inhibitor, single point] | –
23 | COC(=O)NC(c1cccc(C)c1)[C@]1(C(C)=O)CCOC1=O (some centres not stated) | inconclusive [inhibitor, single point] | –
24 | COc1ccc(CN2CCN(C(=O)c3ccco3)CC2)cc1OC | active: 20 µM | –

Row | SMILES | Potency | activity, negative = inhibition
25 | CCNC(=O)C(C)Oc1ccc(Cl)cc1Cl (configuration not stated) | – | inactive: -13.1%
26 | Cc1ccc(-c2cc(-c3ccccc3)nc(Cl)n2)cc1 | inconclusive [inhibitor, single point] | –
27 | COCCNC(=S)Nc1cc(S(=O)(=O)N2CCOCC2)ccc1N1CCCCC1 | active: 5.01 µM | –
28 | CCCc1c(CC)c(=N)c2ccccc2n1C | inconclusive [inhibitor, single point] | –
29 | COC(=O)c1c(NC(=S)NC(=O)c2ccco2)sc2c1CCCC2 | inconclusive [inhibitor, partial curve] | –
30 | O=C(CCNC(=O)c1ccccc1)Nc1cccnc1 | – | inactive: 8.2%
31 | COCCCNC(=O)Cn1nnc(-c2ccccc2NC(=O)c2ccccc2F)n1 | inconclusive [inhibitor, partial curve] | –
32 | COc1ccc(NC(=O)C/C(C)=N/NC(=O)C(=O)Nc2cccc(Cl)c2C)c(OC)c1 | active: 1.26 µM | –
33 | COc1ccc2nc(C)cc(SCC(=O)N/N=C/c3ccc(O)c(O)c3)c2c1 | active: 28.2 µM | –
34 | Cc1ccccc1C(=O)NNC(=S)NC(=O)c1ccccc1 | active: 14.1 µM | –
35 | O=C(O)c1ccc(C(=O)c2ccc3c(c2)C(=O)N(CC2CCCO2)C3=O)cc1 (configuration not stated) | inconclusive [inhibitor, full curve] | –
36 | Cn1c(SCC(=O)c2ccccc2)nnc1-c1cccc(N)c1 | inconclusive [inhibitor, partial curve] | –
37 | CCC(C)(C)n1nnnc1C(c1ccc(C)cc1)N1CCC(C)CC1 (configuration not stated) | – | inactive: -2.65%
38 | C=CCNc1ncnc2c1cnn2-c1ccc(OC)cc1 | inconclusive [inhibitor, single point] | –
39 | CC1(C)C(=O)Nc2ccccc2N1C(=O)COC(=O)c1ccc(Cl)c(S(=O)(=O)NCc2ccccc2)c1 | inconclusive [inhibitor, single point] | –
40 | O=C(CSc1ncn[nH]1)N1CCOCC1 | – | inactive: 14.7%
41 | CCCn1c(N)c(C(c2ccc(C(=O)OC)cc2)N2CCN(c3ccccc3)CC2)c(=O)[nH]c1=O (configuration not stated) | inconclusive [inhibitor, single point] | –
42 | Cc1cccc(-n2ncc3c(NCc4ccc5c(c4)OCO5)ncnc32)c1 | inconclusive [inhibitor, single point] | –
43 | O=C(Nc1ccon1)c1sc2cc(F)ccc2c1Cl | – | inactive: 4.7%
44 | Cc1cccc(N2C(=O)C(Cl)=C(Nc3c(C)n(C)n(-c4ccccc4)c3=O)C2=O)c1C | – | inactive: -14.7%
45 | CC(Oc1ccc(Cl)cc1Cl)C(=O)Nc1ccc2oc(-c3ccncc3)nc2c1 (configuration not stated) | inconclusive [inhibitor, partial curve] | –
46 | CN1CCN(CC(=O)Nc2ccccc2Sc2ccccc2)CC1 | inconclusive [inhibitor, single point] | –
47 | Oc1ccc(-c2nc3cnccn3c2Nc2ccc3c(c2)OCCO3)cc1 | active: 39.8 µM | –
